# Reference: paper PMC12136788
# The other results are listed elsewhere or left out.
# B1: ENSG00000107863:be:win_4451|CDS|ENSG00000107863|bound_else_gene|NA|bound_elsewhere_windowed (ssRNA)
# RNA: GGGAGUUCUACAGUCCGACGAUCGCACGACAAAAGAUGAAAAGAUAUCACUAGGAAAAGAGAGCACGCCUUCUGAAGAACCCUCACCACCACACAACUCAAAACACAACAAGUCACCAACUCUCAGCUGUCGCUUUGCCAUCCCAACAGAGGAUUGAGCAUCA
# B2: chr7:139716074:139716127:-|CDS|ENSG00000064393|msi1_unk|total|mutant (ssRNA)
# RNA: GGGAGUUCUACAGUCCGACGAUCGAAGCAAAACAAGUUCCGCCCCUUGCCCCUCAAAUACAUUCGCCCAGUUCUCCAGCAGGCCGCCACAGCCCUGAUGAAACUCAAAAGCCCCGGUCUUAUCCACGCUGACCUCAAACCAGACAACAGAGGAUUGAGCAUCA
# B3: chr3:58425360:58425463:+|3pUTR|ENSG00000168297|unk|FALSE|unique (ssRNA)
# RNA: GGGAGUUCUACAGUCCGACGAUCAGACAGCUCCUAGAAACAUUCCUCUUACAGUUCAUUUCUCUAAAGCAUUUUCUGAUUCUUAGAUAACUCCAAUUUUUGCUACCUUUAUCUUAGACAUUAACACUAUAGCCCAAAGCAUAGCAACAGAGGAUUGAGCAUCA
# B4: chr5:75360489:75360590:+|3pUTR|ENSG00000113161|msi1|FALSE|unique (ssRNA)
# RNA: GGGAGUUCUACAGUCCGACGAUCGCUCUUUCAGAGAGGUCUCAGGUUCUUUCCAUGCAGACUCCUCAGAUCUGAACACAGUUUAGUGCUUUACAUGCUGUGCUCUUUGAAGAGAUUUCAACAAGAAUAUUGUAUGUUAAAGCACAACAGAGGAUUGAGCAUCA
# B5: chr8:143803364:143803465:-|CDS|ENSG00000180900|msi1|total|mutant (ssRNA)
# RNA: GGGAGUUCUACAGUCCGACGAUCACCCUCACCGUGCUGGUCUGUGACGGCUUUGAGGCCAGCACCGACGCAGCCCUGGAGGUCCGCGAUCCCGCCCCGGGGACCGGGCCUCCCUCUGGCCCAGCCCAAGGUGUUGUGAGCCGCCAACAGAGGAUUGAGCAUCA
# B6: chrX:56565067:56565173:+|CDS|ENSG00000188021|unk|total|mutant (ssRNA)
# RNA: GGGAGUUCUACAGUCCGACGAUCAGAAGCAUGAUGCAGUCGCUGAGCCAGAAUCCAGAUUUGGCUGCACAGAUGAUGCUGAACCGCCCGCUGUUUACUGCAAAUCCUCAGCUGCAGGAGCAGAUGCGGCCACAGCUCCCAGCCCAACAGAGGAUUGAGCAUCA
# B7: chr2:11642538:11642650:+|3pUTR|ENSG00000196208|unk|FALSE|unique (ssRNA)
# RNA: GGGAGUUCUACAGUCCGACGAUCCGAAGAGUUGAUGUCAAUCUUUUUUUCCUAAGAAAAAAAGUCCGCGAGUAUUAAAUAUUUAGAUCAAUGUUUAUAAAAUGAUUACUUUGUAUAUCUCAUUAUUCCUAUUUUGGAAUAAAACAACAGAGGAUUGAGCAUCA
# B8: chr1:211748167:211748268:-|3pUTR|ENSG00000123684|msi1|total|mutant (ssRNA)
# RNA: GGGAGUUCUACAGUCCGACGAUCGUACUGCAUCAGUGAGAUGAGCCGGGUUUUUGUUUGGGAUUGUAAGACUAUUAAGAUCCCCGUAAGUCAGUGGCCGUUUACUGUGAUGUGAGCAUUGCCGAUUCCCCCGUUGUCACUAAUCAACAGAGGAUUGAGCAUCA
# B9: chr1:85267750:85267865:-|CDS|ENSG00000142867|unk|total|mutant (ssRNA)
# RNA: GGGAGUUCUACAGUCCGACGAUCAGGAGAAUCCAGCACGACGCCCUUUUUUUCUACUAAUUCUUCUCUGAAUUUGCCUGUUCCCGAAGCCGGCAGAACUGAAAAUACCAUCUUCUCUUCAACUACACUUCCCAGACCUGGGGACAACAGAGGAUUGAGCAUCA
# B10: ENSG00000198589:be:win_6551|CDS|ENSG00000198589|bound_else_gene|NA|bound_elsewhere_windowed (ssRNA)
# RNA: GGGAGUUCUACAGUCCGACGAUCGACGUAUUUCAUUAGCUAGUCCACGUCAGCUUUUUAAGGCUUCUAAUAUGACCCAGCGAUGGCAACACAGAGAGAUAUCUAAUUUUGAGUACUUGAUGUUUCUCAACACGAUAGCAGGACCAACAGAGGAUUGAGCAUCA
# B11: chr3:170361105:170361226:+|CDS|ENSG00000136603|unk|total|mutant (ssRNA)
# RNA: GGGAGUUCUACAGUCCGACGAUCAAGCUCAUUGGCCCAGUUAAAGGAAACUGGCAGUGCCUUUGAAGUGGAGCAUGAAUGCCCCGGCAAAUGUCAGGGUUUAUUUGCACCCCAGUUUUAUGUUCAGCCUGAUGCUCCGUGUAUCAACAGAGGAUUGAGCAUCA
# B12: chr7:88283957:88284065:-|CDS|ENSG00000127954|unk|total|mutant (ssRNA)
# RNA: GGGAGUUCUACAGUCCGACGAUCCAGUGGUGCAGAAGUCUUGAGCUAUUCAGAAGCAGCCAAGAAGUCUGGCAUCAUAAUCACCGCAAUCCACAGAGAGCAUUAUGAUUUUCUCACAGAAUUAACUGAGGUUCUCAAUGGAAACAACAGAGGAUUGAGCAUCA
# B13: chr12:108783210:108783311:-|3pUTR|ENSG00000084112|msi1|total|mutant (ssRNA)
# RNA: GGGAGUUCUACAGUCCGACGAUCUGUUUAUCCUGCUAUGCAGUUUUACAUUGUGUGUUCACAUCUAUUCCAAGGAGCCUUGCCCGAAACAACACUGGCGGUUCCUGCAGGCCAGGCAGGCAUUGGCCCAUGCUGUGUCCCAUACAACAGAGGAUUGAGCAUCA
# B14: chr16:56429670:56429771:-|3pUTR|ENSG00000167005|msi1|FALSE|unique (ssRNA)
# RNA: GGGAGUUCUACAGUCCGACGAUCCAAUCACUGAGACUGCAUCAGAGUUUGCAAUUUUGUAUGUUUCAUUGCCAAAGAAGGCUUAGUGGUUGUUGACUGUAGUAUAAGUCAGCUUUCUGUAGCAUAAGAUUUGAUUUUCCCAUACAACAGAGGAUUGAGCAUCA
# Biological target: MSI1 full-length (mouse, UniProt Q61474 1-362)
# UniProt Q61474, sequence (Q61474 whole entry): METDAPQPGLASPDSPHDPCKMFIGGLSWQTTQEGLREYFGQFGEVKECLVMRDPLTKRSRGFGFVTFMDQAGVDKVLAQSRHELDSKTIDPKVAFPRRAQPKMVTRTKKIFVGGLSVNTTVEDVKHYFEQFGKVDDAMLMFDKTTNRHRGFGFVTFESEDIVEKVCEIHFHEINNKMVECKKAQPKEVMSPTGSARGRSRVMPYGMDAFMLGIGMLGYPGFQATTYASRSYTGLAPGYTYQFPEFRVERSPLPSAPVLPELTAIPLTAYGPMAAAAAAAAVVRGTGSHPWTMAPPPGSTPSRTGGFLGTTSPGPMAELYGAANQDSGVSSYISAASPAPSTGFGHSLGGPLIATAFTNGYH
# Experiment: nsRBNS (natural sequence RNA bind-n-seq); RBNS binding buffer (assumed for nsRBNS): 25 mM Tris pH 7.5, 150 mM KCl, 3 mM MgCl2, 0.01% Triton X-100, 500 ug/ml BSA, 20 U/ml SUPERase-In, 4 C; UNK is unkempt and MSI1 is Musashi-1; names of the RNAs are library labels; protein concentration not given here; high values mean tight binding
row,Binder,binding signal
1,B1,1.17 enrichment R
2,B2,0.745 enrichment R
3,B3,8.08 enrichment R
4,B4,0.181 enrichment R
5,B5,0.234 enrichment R
6,B6,0.353 enrichment R
7,B7,2.38 enrichment R
8,B8,0.516 enrichment R
9,B9,0.454 enrichment R
10,B10,1.43 enrichment R
11,B11,0.316 enrichment R
12,B12,0.239 enrichment R
13,B13,0.859 enrichment R
14,B14,2.88 enrichment R
